Reference: article PMC10726135
This is one part of the list. At the low end of the ranking, values are background and their order means little. The protein was read in a cell extract, so binding may be indirect.

Biological target: T1, HNF4alpha2 (COS-7 nuclear extract) (UniProt P41235)
T1 sequence: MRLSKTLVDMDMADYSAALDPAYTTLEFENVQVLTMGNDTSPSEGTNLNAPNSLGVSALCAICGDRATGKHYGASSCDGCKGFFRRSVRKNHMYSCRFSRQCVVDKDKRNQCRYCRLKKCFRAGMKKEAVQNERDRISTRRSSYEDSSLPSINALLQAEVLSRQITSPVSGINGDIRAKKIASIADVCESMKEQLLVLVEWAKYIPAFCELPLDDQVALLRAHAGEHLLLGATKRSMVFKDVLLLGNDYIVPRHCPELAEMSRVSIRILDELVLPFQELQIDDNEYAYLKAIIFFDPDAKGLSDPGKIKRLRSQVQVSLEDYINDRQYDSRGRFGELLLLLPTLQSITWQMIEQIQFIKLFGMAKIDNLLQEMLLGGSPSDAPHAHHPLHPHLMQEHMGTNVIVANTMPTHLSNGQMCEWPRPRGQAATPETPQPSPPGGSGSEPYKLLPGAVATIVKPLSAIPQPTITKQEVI
Experiment: protein-binding microarray
Conditions: COS-7 nuclear extract on double-stranded Agilent 4x180k PBM; binding buffer, salt, pH and temperature not given; high values mean tight binding; double strand, one strand shown; sequences stand for … in …GCCTAGGGAGATTAGAGTATCGGTCGA

Row | Sequence | binding signal (log2 normalized intensity)
1 | TTGACCTTTATACCTGTACGTTACTCTGTA | 3.65
2 | AACCCTGGCTGGAGTTGCTGAAATTCCCAC | -0.732
3 | AAATTGATCTAGATAAGTTAGTTTACTTAG | 0.0866
4 | CACTGGGCTGATGACCTTTGACTGAGATGG | 5.32
5 | TGTGGTTGACAGGCAACAATTTGAGGGGTC | 1.69
6 | CTCCATCCCTCATCTGTCATTCCCTCACTC | 0.287
7 | TGGAACGGGGGCAAGGGTCAGAGTAAAGCT | 3.23
8 | ACTTTCCAGTCTAGGTCTGGAAGGAAGGAG | -1.18
9 | GTAGGTACGTTTGTGATACACCTTGCCTGG | 0.423
10 | ATAATCAGAGGCCTGATTATCAGGTGCCTG | -1.13
11 | ACCTTGATGCTGGACTTCAGCCTCCAGAAC | 3.67
12 | AGGCCGGAAAAGATTAGATTGCTCAGAGGC | -0.849
13 | GACACAAAGAGACAAAGCTTTGAAGATGCT | -1.11
14 | ACACTTGTATGACCTTTGTTTTATTGTCAT | 3.64
15 | ATGTGCTTCATGGAGAGAATTCCCATCCCA | -1.04
16 | TGATAAAGGGGGCAAAGGGCATGGGCAGCT | 3.81
17 | GGTCCCTAGGAGATACGCCTGAACTTTGAT | 3.61
18 | TCTTTAGGCCAAACAAAAATATGGACTTTG | 5.84
19 | GTAGGACAGAGTAAAGCCACTGCCTAGATA | -0.984
20 | GTGTGGTGCAGATTCCACACTGGCTAGATA | -1.19
21 | AGGGGGCGGGCGGACTCCGAGCCATTTTGG | -1.14
22 | GGGAGGAGGGCAACCTTTGAACTGGGTCTT | 4.09
23 | TCTAAGCCCTTATCAAAAAGATAAGGACAC | -1.12
24 | TACGCTGTCGTTTGCTTAGTCTTATCTGAG | 0.476
25 | GAAACACTCTGTTTGTAAAGTCTACAAGTG | 1.09

Row | Sequence | binding signal (log2 normalized intensity)
26 | AAAGATACTCTCATCACTTAGGATATTCCA | -1.16
27 | GACCTTTATGGGAAAAAAAAACCACTGTGT | 0.868
28 | GTCTTGCTTTGATGTTGATGGTTGCTGACT | 2.03
29 | GATTTCATCTAAGGACAAACTTTGTCACTG | 1.15
30 | ACCTGTTATTTGCGCCTCCCTAGAGCAGCA | -1.11
31 | ATTTGAGGGTGACACTGCTCTCTCCAGGGG | -0.738
32 | AAGGCTAGTCTTCTTTGGGGCTTAGATAGC | 0.431
33 | AATTCCCTGCAAGGACAAAGGTCATGTTTT | 6.26
34 | CGACCACTGGCTGAACAGGGTCAGTGCAAT | 0.96
35 | TCCAAAGGTCAATGCCAGGACCCTGTGGGA | 2.76
36 | GCAGAAAAACATATTTGCATAATGGAGCAA | -0.977
37 | TACGTACAATCTAAAAATGTTGAACTCACA | 1.89
38 | GAGGCTGAAATGGTTACAAAGGTCACACTC | 4.8
39 | GGTGGCAGCAGCAGGCAGGGACTTTGGCCC | 5.52
40 | GTGCAGGGGGCGAGCATGGCCGCTCCGCGA | -1.13
41 | CCCGCGCGTGGCCCAGCATGCCCCGCGCCG | -0.967
42 | CCTAAGCCCCATGCTGATAAGGGCCACAGA | -0.987
43 | CGGCTTGCGTCCCCAGGTGAACTCAGTCCT | 1.21
44 | CCAAGATACCACTGATAAGGTTCCAGCAAA | -1.03
45 | TTGAAACCTAAGATGTCACAGGCAAGCAAG | -1.11
46 | GACAAGAAAAGTAATGAAAGGAAATCATTC | -0.98
47 | GACCCGTCAGCCCTGGTCCAGGCCATGCAA | -1.21
48 | TCTCTTACCAGCTGGGGTTTTACCAGGCAC | -0.0635
49 | GATAACCCACCTCCGGCCGGGAAGATGCCA | -1.15
50 | ATTAATTAAAGAACTGACAAGCAGTGACCA | 1.21

Row | Sequence | binding signal (log2 normalized intensity)
51 | AGGCCTTTATTTGCTTATAGCTCAAAGTCC | 4.96
52 | CCCTAGTTTTTCTTCCGGTCACATACTCTG | 1.76
53 | GTTAAAGACCTTTGGGTAGGAATAGAGCTC | -0.269
54 | GGGAGAATGATAAGATATATGACTCTAGAT | -1.13
55 | TTCACATTCCATCATCACGGTGGACATTGT | 3.48
56 | TGGGTATGTCTGTAGGTAAGCACAAAGTAC | 1.92
57 | TGTGAGTCACAAACAGTACTGACATCTATC | -1.11
58 | AGCTCTTTTGAACCCAAGGCCAAACACGGA | 0.349
59 | TTGGTCTGAACCTCATCTGTGTAGAAATTG | 0.986
60 | GATGCAGAACAAGGTAGCCACAGAATGACT | -1.04
61 | CCTTTCATGTACTGTTCAGTTCCTATTTCA | 1.72
62 | ACATACCTTAGGCTGTGCATATTGGTTTAC | 1.34
63 | CTACAGAACCTCCCTCCCCATCTCCCCAGA | 5.3
64 | AAGCCCAGAACACTCTACCCCCTCCCACTT | 4.24
65 | TCTGTCTTGGACTGCGAAAGATAAAAGGCC | 0.462
66 | GAGGATGACCTTCCCTGCAGAAAAGGCCCC | 1.33
67 | TTTGTAACTTCTTGGCCTGCATAGCACTTT | 1.47
68 | GGCACTCCCAGGATAATGGAGAAGATAAGC | -1.19
69 | ACATTCCAGAAAAGGCCTAAAAGGTTATCT | -0.657
70 | TTGGAGAATGCCTTTTGTGTAGGAGTACAC | 1.7
71 | AGTCTTGAGTCCCAAAGTCCAAAGGCAGTC | 2.83
72 | GGTTCTGCAGGTTCATGGGAGAGCACTTGG | 0.91
73 | TGACCTTTGCCTCATTCTTATTGCCTCATG | 3.96
74 | TTCCTAACAGTGAATGTTTCGTAATATTTA | -0.309
75 | CAAATTAAACAGCATTTGTTTTAAGTTCAT | 0.426

Row | Sequence | binding signal (log2 normalized intensity)
76 | TTTAGATTTTCTCACTCTAAAGGAAGGGAT | -1.07
77 | ACAGGGTGGCTTTGATCTGGGTGGGGGTGG | 1.3
78 | GGAAAACTACCCCTGCCTAAACAAGGCAGA | -0.903
79 | ATTCCTTTTTCACTGCTCACAGGTTGTACT | 2.03
80 | ATTAAACACAGTTGCCTATGCCCTTTGAAA | 2.36
81 | GAAAGAGGTCAATGTACTTACAGCTGGAAG | 0.646
82 | ACATTCCTTGTGTTTTGGGGACAGAAGGCA | 1.05
83 | TAACGGTGAGGGAGGAGACTTTGACCTCTG | 6.61
84 | CTGGATGACCTTTGTCCTGGCACAACTGGA | 5.84
85 | ATTAGCTGAACATGGTGACACACACCTCCA | -1.19
86 | TAAGGTTGTACTTTGGAGTTTACTTTAGAT | 2.91
87 | TAGCATGCTCTCTTGTCAAGACCGATTGTG | 0.269
88 | CAAATAACATTCCTAACATTCTTCCTCACA | -1.11
89 | TTCCCTATCTAGCCACTTTCTTTGTCTGTG | 1.55
90 | TGTGTGTGTGTGTGTATGCCATGCTAATTG | 2
91 | TGCACTGTTTGCATAAAGTTAAACTTTAAA | 1.17
92 | GCCCGAAAGACGCGGAGCGGGGGACCGAGA | -1.04
93 | ATACAGACACACCTAGGGAGTTAATCACAG | -0.998
94 | AGGTGACAGCCTTTTCTTATCAGGCTCATT | 0.0547
95 | TGGATAAAGTCCATATTCTTTGTTTGGATG | 2.04
96 | GCCAAAGGTAATAGGAAAAGGGAGTTTTCT | -1.07
97 | AGCCTCTCTGCAAACATTTATTTTGTGTGC | 1.34
98 | CATACAATGAATATTCAGACGCATGACCTC | 3.17
99 | CAGTTTTCCTAAGGGGCTTTTATTGGCTCC | -0.56
100 | TCAACATTGATGGGGCAGGGAAATATGTTC | 1.43

Row | Sequence | binding signal (log2 normalized intensity)
101 | AAAATTAAGGTTCAAAGGGAAAAAATAATC | -0.757
102 | AGGAACTTGTCTAAAAACATTGTGGAGCTC | -0.826
103 | AAAAGCAAACCGAGATCAAGGGACAGAGAT | -1.09
104 | GTACTTTCTTTTGGCTCTCTCTCTTGGTTC | 1.58
105 | ACCTGTATTAGGAAATTGTCAGTGCCCTAT | 2.25
106 | AATGGGAGGAACTCCAGAACCAAAGTCCTA | -1.19
107 | AGGCCGCGCCCGCCCGCGCCGGCCTCGGTC | -1.05
108 | CTGGAAGCTCTTCTGTGCCTCCCAAATGCA | 1.45
109 | AAGATAAGGACTGTTGGACCTCGAACTCCA | 4.06
110 | TAAGATACGAAGGGTTTAAAGGGCAGAAGA | 1.91
111 | GGCCTAGACACAGACTCAAGTGAGGAAGGA | -1.05
112 | AGACATAACTCAAACATCTGACAGAGATAA | -1.11
113 | ATGTTTCCTCTCCCAGCCCCTAGCCCTAAG | 3.54
114 | CGCTGCTGCAGAGCAAAGCTGATAAAGAGG | -1.07
115 | CCTCAAGAGACAACCAAGGTTGCAGAGTGT | -0.98
116 | TCACACAAATGGATCTTTCTTCAAAAAGAG | 0.257
117 | TTAATCACAGGATTTAAAGAATTCCAGACA | -1.09
118 | AGTCTTGGCCCCACCGGTCACGACCCCGCT | 3.62
119 | CAAGATTAGTGGGAAAGCTATTGCTCTGCA | -1.14
120 | AAACCAAATCACAATTTTCAAGAACAAACA | -0.824
121 | CAAAGGGTCAAGTTCAGATCCTGGCCATGC | 0.748
122 | GCCTGTCACCCAACCTCACCTAACCACATT | 1.67
123 | TAAGGAAGATAATGGGTCCGAAGGTCAGCT | 6.35
124 | ACTTTGACCTTGGCACTGAAGAATGTCTAA | 1.8
125 | CCTGGGAGTAACCTGCTTGTTTTCCCAACA | -0.54

Row | Sequence | binding signal (log2 normalized intensity)
126 | GTTAAACAGCAACTCAGGCAACAATGCCTT | -1.14
127 | AATTTTTTTTTCTTATCTCACTGGATGTGT | 2.22
128 | CTGGGGCAAAGGTTTCCTAAACAGTTACCG | 0.188
129 | TGACCTTGGGCCAGTCGCTTAACCTCTTGA | 1.36
130 | GCCGACTTACAGGACAAAAGTAAATATGGT | 0.187
131 | ATTTTGTCACCTACATGTGAGAGAGGCTTA | -0.433
132 | CCCAGTATGGTCTCAGTAATGACATGCAGT | 0.951
133 | ATGGCTTATGCATGTTTATGTGAATTCCTG | 1.35
134 | AATTACCCAACAGACTTTCCCCCTATTTCC | 3.25
135 | CTCTAATCTGGGACAAGGGGGAGGAGAGTA | -0.975
136 | GCAGTGGTTTGCAGTTGGAAAGCTGAGTTT | 1.06
137 | GCTTTTCTTTCTCAAGCCAGACTGGTTTTT | 1.2
138 | TCCTCTTCCCTACCCCCTGGGAGTAACCTG | 2.81
139 | GCACTTTGCACCCTATGTGTTTCTTCTGCT | 4.08
140 | TGAGCCATCCTGAACAAATGTACTGGATAT | -0.976
141 | GTGTGGGGCAAATCTGAGGTCAAAGCTGTC | 1.41
142 | AGCCACTTTCTTTGTCTGTGTAGACTCATC | 1.07
143 | ACAGAGCCTGGTGTTTACTGGAGCCGAGTC | -0.283
144 | GGGAGCCCTGGGGTAATAAATAAAGCCCTG | -1.19
145 | GCACAGATCATATGGCCCACAAAGCCTAAA | -1.17
